In PubChem BioAssay (NCI):
Several values for one entry are separate records, joined by “and”; a condition that tells them apart may be missing. Identical values can stand only once.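 Five concentrations, 48 hours, 96-well plates. GI50: concentration for 50% inhibition of growth. TGI is the concentration that stops growth completely.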

What follows are compounds tested on NCI-H322M lung (assay: DTP human tumour cell line panel, 48 h).

`CC(C)N1CN(C(C(=O)N[C@@H]2C(=O)N3C2SC(C)(C)C3C(=O)O)c2ccccc2)CSC1=S` (some centres not stated) and `COC(=O)CCc1cc(O)c2c(c1)C(C(=O)OC)C(c1ccc(O)c(O)c1)O2` (configuration not stated) cannot be ordered by TGI: over 100 µM for the first, over 100 µM for the second.

`CCOP(=O)(O)C1C(CO)OC(n2ccc(=O)[nH]c2=O)C1O` (configuration not stated) and `COc1ccc(-n2cc(-c3cc(OC)c(OC)c(OC)c3)[nH]c2=O)cc1Cl` cannot be ordered by TGI: over 100 µM for the first, over 100 µM for the second.

First: CN(C)/C=N/S(=O)(=O)c1nn2c(C=O)c(-c3ccc(Cl)cc3)nc2s1
Second: Cc1nc(-c2ccccc2)c(-c2ccccc2)s1
The TGI of the first is lower: 25.7 µM for the first, over 100 µM for the second.

Compared with `CC[CH2][Sn]([Cl])([Cl])[CH2]CC.Oc1ccccc1C=NCCN=Cc1ccccc1O`, `O=C(O)Cc1cccc2c1OC(c1ccccc1)C(Cl)(C(=O)c1ccccc1)C2=O` (configuration not stated) is 1.6-fold higher in TGI: 30.4 µM for the first, 49.5 µM for the second.

`O=C1NCCCNCCCNCCCNC(=O)c2cccc1n2` and `CSc1nc2cc(S(=O)(=O)N3CCCCC3)ccc2s1` cannot be ordered by TGI: over 100 µM for the first, over 100 µM for the second.

`COC(=O)C(=O)C(C(=O)C=C(C)C)C(=O)C(=O)Nc1ccc(C)cc1C` (configuration not stated) and `Cc1ccc(NC(=O)c2cccc(OP(=O)(O)Nc3ccc(C)cc3)c2)cc1` cannot be ordered by TGI: over 100 µM for the first, over 100 µM for the second.

Going from `Cc1ccc(NC(=O)NCCCOc2ccc(N3C(N)=NC(N)=NC3(C)C)cc2Cl)cc1S(=O)(=O)F` to `CCN(CC)CCCC(C)Nc1cnc(C(=O)Nc2cccc3ccc(OC)nc23)cn1` (configuration not stated), the TGI falls from over 100 µM to 5.9 µM.

`C=C1CC[C@H](O)C(C)(C)[C@@H]1CC/C(C)=C/CC/C=C(\C)CC/C=C(\C)CCC=C(C)C` and `COC/C=C\[C@]1(O)CCCC[C@@H]1CC(OC)OC` cannot be ordered by TGI: over 100 µM for the first, over 100 µM for the second.

Going from `CCN(CC)CC(=O)O[C@]1(CC)C(=O)OCc2c1cc1n(c2=O)Cc2cc3ccccc3nc2-1` to `Cc1nn(C(=O)Cc2ccccc2)c2c1C(c1ccc(N(C)C)cc1)SC(N)=N2` (configuration not stated), the TGI rises from 0.585 µM to over 100 µM.

Going from `Cc1cc(=O)n2nc(CN3CCCCC3)sc2n1` to `Cc1ccc(/C=C2\CCC/C(=C\c3ccc(O)c(CN4CCCCC4)c3)C2=O)cc1`, the TGI falls from over 100 µM to 43 µM.

First: CCn1c2ccccc2n2c(=O)c3c(c(C#N)c12)CCCC3
Second: N#Cc1c(Cl)c2cc([N+](=O)[O-])ccc2n2c1nc1ccccc12
The TGI of the first is higher: over 100 µM for the first, 27.6 µM for the second.

`O=C1N[C@@H](c2c[nH]c3cc(Br)ccc23)C(=O)N[C@H]1c1c[nH]c2cc(Br)ccc12` and `CN1C(=O)c2ccccc2NC(=O)C12O[C@@H]2c1cccc(O)c1` (some centres not stated) cannot be ordered by TGI: over 100 µM for the first, over 100 µM for the second.

Going from `N#Cc1cccc(NC(=O)c2cc(-c3ccc(F)cc3F)ccc2O)c1` to `CCn1c(SCC(=O)NNC(=S)Nc2ccc(C)cc2)nc2ccccc2c1=O`, the TGI rises from 9.42 µM to over 100 µM.

Going from `CCc1ccc(Nc2ccc([N+](=O)[O-])cc2[N+](=O)[O-])cc1` to `O=C(/C(=C/c1cccc([N+](=O)[O-])c1)c1ccccc1)c1ccccc1`, the TGI falls from over 100 µM to 15.9 µM.

`COc1ccccc1Cn1cc2c(c1-c1ccccc1)CCc1cnoc1-2` and `COc1cc(/C=C2\N=C(c3ccccc3)N(c3nc4c(OC)ccc(OC)c4s3)C2=O)ccc1O` cannot be ordered by TGI: over 100 µM for the first, over 100 µM for the second.

First: Cc1ccc(NC(=S)N/N=C(/c2ccccc2)c2ccccn2)cc1
Second: CN(C)C(c1ccccc1)C(O)c1ccccc1 (configuration not stated)
The TGI of the first is lower: 0.0159 µM for the first, over 100 µM for the second.

`Clc1ccccc1/C=C/c1cscn1` and `Fc1ccc(C2SCc3nc4ccccc4n32)cc1Cl` (configuration not stated) cannot be ordered by TGI: over 100 µM for the first, over 100 µM for the second.

Compared with `C=C(C)C(=O)OC1CCC2(C)C(CCC3C2CCC2(C)C(c4ccc(=O)oc4)CC4OC432)C1` (configuration not stated), `CC(C)Oc1ccc2c(c1)OCC1Cc3ccccc3OC21` (configuration not stated) is higher in TGI: 41.8 µM for the first, over 100 µM for the second.

Compared with `N#CCC(=O)NC1C2CC3CC(C2)CC1C3` (configuration not stated), `N#C/C(N)=C(\C#N)N=CN` is higher in TGI: 32.5 µM for the first, over 100 µM for the second.

`COc1ccc(/C=C\c2cc(OC)c(OC)c(OC)c2)cc1OC(=O)NCCN(C)C` and `COc1cc2c(c(OC)c1OC)-c1c(cc3c(c1OC)OCO3)C1OC2C(C)C1C` (configuration not stated) (tested in a mixture with another compound) cannot be ordered by TGI: over 100 µM for the first, over 100 µM for the second.

Going from `Cc1ccc(C)c(COCCOCn2ccc(N)nc2=O)c1` to `COC(=O)C1C(=O)C=CN([C@H](C)c2ccccc2)[C@@H]1Cc1ccc(OC)c(OCc2ccccc2)c1I` (some centres not stated), the TGI falls from over 100 µM to 61.9 µM.

`N.N.O=C([O-])P(=O)([O-])[O-].[Na+].[Pt+4]` and `CN(/N=C/c1ccc(OCc2cccc(COc3ccc(C=O)cc3)n2)cc1)c1cnn(-c2ccc(Cl)cc2Cl)c(=O)c1Cl` cannot be ordered by TGI: over 100 µM for the first, over 100 µM for the second.

`O=C1CCCCC2N(C(c3ccccc3)c3ccccc3)CC[C@@]12c1ccccc1` (mixture of isomers) and `CC(C)(C)C1=CC(=C(c2ccc(-c3c4nc(c(-c5ccc(C(=C6C=C(C(C)(C)C)C(=O)C(C(C)(C)C)=C6)c6cc(C(C)(C)C)c(O)c(C(C)(C)C)c6)cc5)c5ccc([nH]5)c(-c5ccc(C(=C6C=C(C(C)(C)C)C(=O)C(C(C)(C)C)=C6)c6cc(C(C)(C)C)c(O)c(C(C)(C)C)c6)cc5)c5nc(c(-c6ccc(C(=C7C=C(C(C)(C)C)C(=O)C(C(C)(C)C)=C7)c7cc(C(C)(C)C)c(O)c(C(C)(C)C)c7)cc6)c6ccc3[nH]6)C=C5)C=C4)cc2)c2cc(C(C)(C)C)c(O)c(C(C)(C)C)c2)C=C(C(C)(C)C)C1=O` cannot be ordered by TGI: over 10 µM for the first, over 100 µM for the second.

First: CC[CH2][Sn]([Cl])([Cl])[CH2]CC.Oc1ccccc1C=NCCN=Cc1ccccc1O
Second: O=C(/C(=C/c1cccc([N+](=O)[O-])c1)c1ccccc1)c1ccccc1
The GI50 of the first is 4.1-fold higher: 14.3 µM for the first, 3.53 µM for the second.

First: Cc1ccc(NC(=O)NCCCOc2ccc(N3C(N)=NC(N)=NC3(C)C)cc2Cl)cc1S(=O)(=O)F
Second: CCN(CC)CCCC(C)Nc1cnc(C(=O)Nc2cccc3ccc(OC)nc23)cn1 (configuration not stated)
The GI50 of the first is 9.1-fold higher: 21.4 µM for the first, 2.34 µM for the second.

Compared with `N#Cc1cccc(NC(=O)c2cc(-c3ccc(F)cc3F)ccc2O)c1`, `COc1ccccc1Cn1cc2c(c1-c1ccccc1)CCc1cnoc1-2` is 2.1-fold higher in GI50: 2.84 µM for the first, 5.93 µM for the second.

`COc1ccc(-n2cc(-c3cc(OC)c(OC)c(OC)c3)[nH]c2=O)cc1Cl` and `N.N.O=C([O-])P(=O)([O-])[O-].[Na+].[Pt+4]` cannot be ordered by GI50: over 100 µM for the first, over 100 µM for the second.

Compound `C/C=C1/C(=C/c2[nH]c(/C=c3\[nH]/c(=C/C4=NC(=O)C(CC)=C4C)c(C)c3CCC(=O)O)c(CCC(=O)O)c2C)NC(=O)C1C` (configuration not stated) has a GI50 of over 150 µg/mL.

With `C/C=C1/C(=C/c2[nH]c(/C=c3\[nH]/c(=C/C4=NC(=O)C(CC)=C4C)c(C)c3CCC(=O)O)c(CCC(=O)O)c2C)NC(=O)C1C` (configuration not stated) the TGI was over 150 µg/mL.

For `CC(C)(C)c1cc(NC(=O)Cc2ccc(-c3cnc4cc(-c5cnn(CCN6CCOCC6)c5)ccc4n3)cc2)no1`, the TGI was 50 µM and > 100 µM and > 3 µM.
